Among all 110,000 compounds or so, about 230 (0.21%) showed an effect of 50% or more. Some of the results follow.
The molecules below were run against DPAP1 (Plasmodium falciparum, UniProt Q8IIJ9) (assay: primary screen, percent inhibition; read by cleavage of a fluorogenic dipeptide substrate; higher = more effect of the substance).
DPAP1, sequence (Q8IIJ9 whole entry, looked up): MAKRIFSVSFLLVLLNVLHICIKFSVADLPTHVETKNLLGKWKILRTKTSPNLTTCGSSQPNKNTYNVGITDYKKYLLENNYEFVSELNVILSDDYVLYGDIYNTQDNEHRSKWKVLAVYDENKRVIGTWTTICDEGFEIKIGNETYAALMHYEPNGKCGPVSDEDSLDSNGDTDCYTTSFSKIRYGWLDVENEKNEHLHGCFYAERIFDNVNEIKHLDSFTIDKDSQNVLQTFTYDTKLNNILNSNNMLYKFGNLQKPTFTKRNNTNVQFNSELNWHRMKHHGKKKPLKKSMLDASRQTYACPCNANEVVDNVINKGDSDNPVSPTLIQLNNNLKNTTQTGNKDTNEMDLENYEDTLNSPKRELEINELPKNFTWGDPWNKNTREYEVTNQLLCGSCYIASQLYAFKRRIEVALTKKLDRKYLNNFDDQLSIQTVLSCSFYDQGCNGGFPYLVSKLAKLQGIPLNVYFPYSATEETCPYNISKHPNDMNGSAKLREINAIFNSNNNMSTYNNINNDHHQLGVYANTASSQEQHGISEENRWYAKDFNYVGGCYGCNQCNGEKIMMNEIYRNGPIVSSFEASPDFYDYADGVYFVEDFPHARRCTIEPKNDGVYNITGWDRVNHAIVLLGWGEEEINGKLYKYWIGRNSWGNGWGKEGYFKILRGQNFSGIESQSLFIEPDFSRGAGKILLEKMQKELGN
Set-up: species or system P. falciparum D10 trophozoite lysates; single well
In the case of `CCOc1cc2c(cc1/C=C1/SC(=O)N(C(C)C)C1=O)OCO2`, the “% Inhibition @ 10 uM” value is reported as -3.41%. For `CCOC(=O)C1=CN(C)C=C(C(=O)OCC)C1c1cc(Br)ccc1OC`, the “% Inhibition @ 10 uM” value was 3.45%. `C=CCO/C(O)=C1/C(C)=Nc2ncnn2C1c1ccc(CC)cc1` (stereo not shown) was tested, and the “% Inhibition @ 10 uM” value was 0.0842%. In the case of `Cc1ccc(C)c(N(CC(=O)Nc2ccc(Br)cc2)S(C)(=O)=O)c1`, the “% Inhibition @ 10 uM” value is reported as 3.83%. `CCOC(=O)N1CCN(Cc2c(C)n(C)n(-c3ccccc3)c2=O)CC1` was tested, and the “% Inhibition @ 10 uM” value was -1.21%. For `CCOCCCNC(=O)Cn1ncc2c3ccccc3n(Cc3c(C)cc(C)cc3C)c2c1=O`, the “% Inhibition @ 10 uM” value was -5.19%. For `CC(=O)c1cc2c(cc1N)OCCO2`, the “% Inhibition @ 10 uM” value was 2.51%. `Cc1cc(-c2ccc(S(=O)(=O)NCCc3ccccc3)cc2)on1` was tested, and the “% Inhibition @ 10 uM” value was -1.83%. For `COc1cc(CNC(C)(C)CO)ccc1OCc1ccc(Cl)cc1`, the “% Inhibition @ 10 uM” value was -1.96%. `Cc1[nH]c2ccccc2c1-c1csc(-c2cccnc2)n1` was tested, and the “% Inhibition @ 10 uM” value was -2.64%. `CC(C(=O)O)N1C(=O)c2cccc3cccc(c23)C1=O` (stereo not shown) was tested, and the “% Inhibition @ 10 uM” value was -1.37%. In the case of `COc1ccc(C2CC(C(F)(F)F)n3ncc(C(=O)NCCc4ccccc4)c3N2)cc1OC` (stereo not shown), the “% Inhibition @ 10 uM” value is reported as -3.78%. With `CCOc1cc(C2c3c(oc4ccc(F)cc4c3=O)C(=O)N2Cc2ccccc2Cl)ccc1O` (stereo not shown) the “% Inhibition @ 10 uM” value was -3.13%. With `CC1CCc2c(sc(NC(=O)c3cccc(F)c3F)c2C(N)=O)C1` (stereo not shown) the “% Inhibition @ 10 uM” value was 3.44%. In the case of `Clc1cccc(NCc2ccncc2)c1`, the “% Inhibition @ 10 uM” value is reported as 1.26%. For `CCCCNC(=O)C1Cc2ccccc2CN1S(=O)(=O)c1cccs1` (stereo not shown), the “% Inhibition @ 10 uM” value was 3.26%. In the case of `O=C(c1ccco1)N1CCN(c2c(O)nc3ccc(Cl)cc3c2-c2ccccc2)CC1`, the “% Inhibition @ 10 uM” value is reported as -2.14%. For `O=C(Nc1ccc(-c2nc3ccccc3o2)cc1)c1ccc(Oc2ccc([N+](=O)[O-])cc2)cc1`, the “% Inhibition @ 10 uM” value was -2.55%. With `CC(=O)NCCc1nc2ccccc2n1CCCCOc1ccccc1` the “% Inhibition @ 10 uM” value was -4.29%. For `CN(C(=O)c1ccnn1C)C12CC3CC(CC(C3)C1)C2`, the “% Inhibition @ 10 uM” value was -0.48%. For `Cc1ccc(-n2nc(C)c(NS(=O)(=O)c3ccccc3)c2C)cc1C`, the “% Inhibition @ 10 uM” value was 5.5%. With `CCOc1cccc2cc(-c3csc(NC4CCCCC4)n3)c(=O)oc12` the “% Inhibition @ 10 uM” value was 2.4%. With `COc1ccc(CCNC(=O)c2cc3cc4ccc(C)cc4nc3s2)cc1OC` the “% Inhibition @ 10 uM” value was 2.02%. With `CC(=O)c1c(C)n(S(=O)(=O)c2ccccc2)c2ccc(NS(=O)(=O)c3ccccc3)cc12` the “% Inhibition @ 10 uM” value was 5.26%. With `Cc1cc(Br)ccc1NC(=O)COc1ccccc1Cl` the “% Inhibition @ 10 uM” value was -7.9%. `COc1ccc(-c2nonc2NC(=O)c2ccc(C(C)(C)C)cc2)cc1OC` was tested, and the “% Inhibition @ 10 uM” value was 6.92%. For `CN(C)C(=O)Cc1c[nH]c2ccccc12`, the “% Inhibition @ 10 uM” value was -2.26%. With `CC1(C)Cc2c(C#N)c(O)nc(-c3ccco3)c2CO1` the “% Inhibition @ 10 uM” value was 3.39%. With `CCOc1cc(-c2nn3c(CC)nnc3s2)cc(OCC)c1OCC` the “% Inhibition @ 10 uM” value was -1.07%. For `CCC1CCc2c(sc(NC(=O)CCCC(=O)O)c2C(N)=O)C1` (stereo not shown), the “% Inhibition @ 10 uM” value was -0.864%. `CCCCN(C)C1CN2CCC1CC2` (stereo not shown) was tested, and the “% Inhibition @ 10 uM” value was -1.82%. In the case of `CCC(C)NC(=O)CSc1nc2cc(OC)c(OC)cc2c2nc(CCn3nc(C)cc3C)nn12` (stereo not shown), the “% Inhibition @ 10 uM” value is reported as 6.08%. For `O=C1CSC(c2ccccc2)N1CCCN1CCOCC1` (stereo not shown), the “% Inhibition @ 10 uM” value was -4.16%. `O=C(NCCc1ccc(Cl)cc1)c1cc2c(s1)CS(=O)(=O)C2` was tested, and the “% Inhibition @ 10 uM” value was -15.9%. In the case of `COc1ccc2c(Cl)c(C(=O)Nc3ccc(S(=O)(=O)N4CCCCC4)cc3)sc2c1`, the “% Inhibition @ 10 uM” value is reported as -4.28%. With `O=C(O)CP(=S)(c1ccccc1)c1ccccc1` the “% Inhibition @ 10 uM” value was 1.84%. With `CC(C)CN(CCNC(=O)Cn1nc(-c2ccccc2)ccc1=O)CC(C)C` the “% Inhibition @ 10 uM” value was -4.83%. `CC1(C)CC(OC(=O)c2ccccc2)CC(C)(C)N1OC(=O)CCCN1C(=O)c2ccccc2C1=O` was tested, and the “% Inhibition @ 10 uM” value was -1.24%. In the case of `CCN(CC)CCCCOc1ccccc1Cl`, the “% Inhibition @ 10 uM” value is reported as -2.12%. With `CCC(C)NC(=O)CCc1c(C)nc2c(c1C)c(=O)n(C)c(=O)n2C` (stereo not shown) the “% Inhibition @ 10 uM” value was -6.91%. For `O=C(O)C1C2C=CC(C2)C1C(=O)NCCc1cccc(Cl)c1` (stereo not shown), the “% Inhibition @ 10 uM” value was -3.72%. In the case of `O=c1oc2ccccc2n1Cc1cccc(C(F)(F)F)c1`, the “% Inhibition @ 10 uM” value is reported as -1.06%. `Cc1c(-c2ccccc2)nc2ccccc2c1C(=O)N1CCCC1` was tested, and the “% Inhibition @ 10 uM” value was -2.19%. `CCOC(=O)Cc1csc(N[C@@H](CC(C)C)C(=O)NCC#N)n1` was tested, and the “% Inhibition @ 10 uM” value was 0.173%. `O=C(COc1ccc(Cl)cc1Cl)Nc1ccc(C(=O)N2CCCCC2)cc1` was tested, and the “% Inhibition @ 10 uM” value was -2.58%. `COc1ccc(N2C(=O)C(Cl)=C(Nc3cc(OC)ccc3OC)C2=O)cc1` was tested, and the “% Inhibition @ 10 uM” value was 0.385%. In the case of `COc1ccc(S(=O)(=O)N(CC(=O)N2CCN(c3ccc(F)cc3)CC2)c2ccc(C)cc2)cc1`, the “% Inhibition @ 10 uM” value is reported as 0.755%. `Cc1ccccc1N1CCN(Cc2coc3c(Cl)cc(Cl)cc3c2=O)CC1` was tested, and the “% Inhibition @ 10 uM” value was -7.17%. With `CN(C)c1nc(N(C)C)nc(N(C#N)CCOc2ccccc2)n1` the “% Inhibition @ 10 uM” value was 0.587%. In the case of `COc1ccccc1C1C(C(C)=O)=C(C)N=c2s/c(=C\c3cccnc3)c(=O)n21` (stereo not shown), the “% Inhibition @ 10 uM” value is reported as 2.8%. `Cc1cc2oc3c(c(=O)c2cc1C)C(c1ccccc1F)N(CCCN1CCOCC1)C3=O` (stereo not shown) was tested, and the “% Inhibition @ 10 uM” value was -1.11%. In the case of `C=CCc1ccccc1OCC(N)=O`, the “% Inhibition @ 10 uM” value is reported as -3.55%. For `O=C(Cc1ccc(Cl)cc1)Nc1ccc(Oc2ccc3c(c2)C(=O)NC3=O)cc1`, the “% Inhibition @ 10 uM” value was 0.145%. With `N=C1/C(=C/c2ccc(OCc3ccc4c(c3)OCO4)cc2)C(=O)N=C2SC=CN12` the “% Inhibition @ 10 uM” value was 5.44%. For `O=C(COc1ccccc1Cl)Nc1ccc(S(=O)(=O)NC2CCCCC2)cc1`, the “% Inhibition @ 10 uM” value was 3.17%. With `Cc1ccc(CCNCc2c(C(=O)O)n(C)c3ccccc23)cc1` the “% Inhibition @ 10 uM” value was -5.05%. `COC(=O)c1[nH]c2c(c1C)C(=O)CC(c1cccc(OC)c1)C2` (stereo not shown) was tested, and the “% Inhibition @ 10 uM” value was 2.35%. In the case of `Cc1cc(Br)ccc1OCC(=O)NC(C)c1ccccc1` (stereo not shown), the “% Inhibition @ 10 uM” value is reported as 6.15%. For `COC(=O)c1c(NC(=O)c2sc3ccccc3c2Cl)sc(C)c1C`, the “% Inhibition @ 10 uM” value was 5.22%. In the case of `O=[N+]([O-])c1ccccc1CN1CCN(c2cccc(Cl)c2)CC1`, the “% Inhibition @ 10 uM” value is reported as 1.55%. For `CC(C)=CCCC(C)CN1CCC(C(N)=O)CC1` (stereo not shown), the “% Inhibition @ 10 uM” value was -1.21%. In the case of `O=C(NCc1ccccn1)c1ccc(NS(=O)(=O)c2cccc(Cl)c2)cc1`, the “% Inhibition @ 10 uM” value is reported as -1.04%. In the case of `NS(=O)(=O)c1cccc2cc(C(=O)O)c(O)cc12`, the “% Inhibition @ 10 uM” value is reported as 1.74%. In the case of `COc1cnn(-c2cccc(C(F)(F)F)c2)c(=O)c1OC`, the “% Inhibition @ 10 uM” value is reported as 0.135%.
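Note: 30 min substrate incubation versus DMSO and 10 µM JCP410 controls.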
